Laboratory results published in article PMC4336329 (PLoS ONE, 2015).
About 14,000 (4.5%) of roughly 310,000 compounds showed an effect of 50% or more. Effects have a minus sign here. The list shows a part of the results.

Molecular target: human ether-à-go-go-related gene (hERG) potassium channel (human, UniProt Q12809)
Test: primary screen, population patch clamp on CHO cells stably expressing hERG
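Note: peak tail current of the secondary pulse compared with the same well before compound.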

Chain of human ether-à-go-go-related gene (hERG) potassium channel (Q12809 whole entry, looked up): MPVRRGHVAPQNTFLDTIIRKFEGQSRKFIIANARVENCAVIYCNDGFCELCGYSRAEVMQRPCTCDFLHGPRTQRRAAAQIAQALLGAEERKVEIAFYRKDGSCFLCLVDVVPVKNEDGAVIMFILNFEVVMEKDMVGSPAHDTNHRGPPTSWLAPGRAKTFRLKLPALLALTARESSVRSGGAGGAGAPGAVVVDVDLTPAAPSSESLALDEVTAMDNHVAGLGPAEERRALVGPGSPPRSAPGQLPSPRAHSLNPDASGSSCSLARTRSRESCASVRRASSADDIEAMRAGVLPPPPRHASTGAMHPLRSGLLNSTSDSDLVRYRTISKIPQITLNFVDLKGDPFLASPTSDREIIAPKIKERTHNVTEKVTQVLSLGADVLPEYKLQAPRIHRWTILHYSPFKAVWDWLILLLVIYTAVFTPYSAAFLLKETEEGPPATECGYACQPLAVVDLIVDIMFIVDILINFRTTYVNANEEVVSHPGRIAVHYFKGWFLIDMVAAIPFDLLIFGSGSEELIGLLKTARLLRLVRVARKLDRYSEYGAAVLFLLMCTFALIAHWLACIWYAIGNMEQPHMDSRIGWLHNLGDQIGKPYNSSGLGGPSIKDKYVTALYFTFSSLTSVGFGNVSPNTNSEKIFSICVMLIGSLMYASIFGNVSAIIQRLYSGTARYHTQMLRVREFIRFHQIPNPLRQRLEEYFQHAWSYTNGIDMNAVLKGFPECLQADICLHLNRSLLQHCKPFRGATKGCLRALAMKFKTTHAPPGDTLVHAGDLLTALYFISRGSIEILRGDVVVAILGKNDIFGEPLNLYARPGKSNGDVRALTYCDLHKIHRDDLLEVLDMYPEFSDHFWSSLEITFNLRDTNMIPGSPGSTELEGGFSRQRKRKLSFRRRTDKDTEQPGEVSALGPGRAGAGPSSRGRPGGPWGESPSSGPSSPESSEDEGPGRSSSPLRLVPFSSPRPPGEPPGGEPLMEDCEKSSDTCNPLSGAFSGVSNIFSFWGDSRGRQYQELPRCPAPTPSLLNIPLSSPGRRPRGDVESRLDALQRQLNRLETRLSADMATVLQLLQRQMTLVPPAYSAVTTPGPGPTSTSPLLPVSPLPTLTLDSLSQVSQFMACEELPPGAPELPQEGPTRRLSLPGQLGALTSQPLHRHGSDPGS

SMILES	hERG current change (%, negative = inhibition) at 10uM [%]
COC1CCCN(C(=O)c2ccc(OC3CCN(S(=O)(=O)N(C)C)CC3)cc2)C1 (centres unmarked)	8.14
CCSC1=C(C#N)C(c2ccccc2OC)CC(=O)N1 (centres unmarked)	-9.7
C/C=C/C(=O)Nc1cccc(C(F)(F)F)c1	8.5
COC(=O)c1ccccc1NC(=O)c1cnn2cccnc12	13
Cc1cc(C)cc(N(CC(=O)NC(C)C)C(=O)CCC(=O)Nc2ccccn2)c1	5.94
CCc1nc2ccc(C(=O)NCCCN3CCN(c4ccc(F)cc4)CC3)cc2nc1CC	-66.4
COC(=O)c1cccnc1N1CCN(c2ccccc2F)CC1	-13.4
O=C(NNC(=O)C1CCN(C(=O)Nc2ccccc2)CC1)c1ccc([N+](=O)[O-])cc1	2.62
Cc1cc(NC(=O)CSc2n[nH]c(=O)[nH]c2=O)ccc1Br	26.6
Cc1ccccc1-c1nc(CS(=O)(=O)CC(=O)NCCN2CCCC2)c(C)o1	-10.4
CCNCc1cc(OCC)c(OCC(=O)NCCc2ccccc2)cc1Cl.Cl	-13
Cc1cc(C)c(C2=NOC3C4CCC(C4)C23)c(C)c1 (centres unmarked)	-0.313
Cc1ccccc1C(=O)NNC(=O)C(=O)N1CCCCC1	0.748
Cc1cccc(NC(=S)N(Cc2ccc(Cl)cc2)Cc2ccc(C(=O)O)cc2)c1	12.3
COC(=O)CCC(=O)OC1(C)C(=O)C2=CN(Cc3ccco3)C(c3ccc(OC)cc3)=CC2=C(Br)C1=O (centres unmarked)	-3.32
CC1CCN(c2ccc3c(c2)S(=O)(=O)c2cccc(C(=O)NCc4ccc(F)cc4)c2C3=O)CC1	-4
Br.O=C(N=c1nc2ccccn2s1)c1ccccc1	14.1
COc1cc(CN2CCC(n3nccc3NC(=O)c3ccccc3OC)CC2)ccc1F	-76.7
O=C(c1ccccc1)N1CCC(CC2CC(c3ccc(Cl)cc3)=NO2)(C(=O)NCC2CCCCC2)CC1 (centres unmarked)	-52
O=C(NCCc1nc2ccccc2[nH]1)c1ccc([N+](=O)[O-])cc1	-56.8
Oc1ccccc1C=NC1=NN(c2cccc(C(F)(F)F)c2)CC1	3.42
CNC(=O)COC(=O)c1ccc(Cl)c(S(N)(=O)=O)c1	-28.8

SMILES	hERG current change (%, negative = inhibition) at 10uM [%]
O=C(CCC(=O)N1CCCc2ccccc21)N1CCN(S(=O)(=O)c2ccccc2)CC1	-9.26
Cc1ccsc1C(=O)C1CCCN(Cc2cccn2-c2ccccn2)C1 (centres unmarked)	-75.8
COc1ccc2cc(C(C)C(=O)NC3CCC(O)CC3)ccc2c1 (centres unmarked)	4.4
O=C(NCC1CCCO1)c1cccc(S(=O)(=O)Nc2ccc(F)cc2)c1 (centres unmarked)	-3.75
CCCOc1ccc(Cc2c(O)nc(SC)[nH]c2=O)cc1	5.9
CC(C)OC(=O)CC1C(=O)NCCN1C(=S)NC(=O)c1cccs1 (centres unmarked)	16.3
Cc1ccc(-c2nnc(Cc3ccc([N+](=O)[O-])cc3)o2)cc1	-64.9
N#Cc1ccc(OCC(=O)NNC(=S)NC2CCCCC2)cc1	-44.3
O=C(NCC1CCCN(Cc2ccccc2F)C1)c1cccc(C(F)(F)F)c1 (centres unmarked)	-52.1
CCn1c(=O)c(C(=O)NC(C)c2ccccc2)c(O)c2ccccc21 (centres unmarked)	19
Cc1ccc(-c2c(C)sc(=NC(=O)c3ccco3)n2C)cc1	4.73
COc1cc(/C=N/Nc2ccc(Cl)nn2)cc(OC)c1O	14.8
COc1ccc(Cn2c(N)c(C#N)c3nc4ccccc4nc32)cc1OC	5.44
CS(=O)(=O)c1ccc(Cl)c(NC(=O)CCCSc2ccccc2)c1	-6.39
COc1ccc(C2CC(=O)c3c(C)nc(N4CCN(Cc5ccccc5)CC4)nc3C2)cc1OC (centres unmarked)	25.3
O=C(Cc1ccc([N+](=O)[O-])cc1)N/N=C/c1ccccc1F	1.7
CC1CCN(S(=O)(=O)c2ccc3[nH]cc(C(=O)NCCN4CCOCC4)c(=O)c3c2)CC1	4.43
CCN1CCc2c(sc(NC(=O)C3COc4ccccc4O3)c2C(N)=O)C1.Cl (centres unmarked)	-20.8
O=C(NC(Cc1ccccc1)C(=O)O)/C(=C/c1cccc([N+](=O)[O-])c1)NC(=O)c1cccc(Br)c1 (centres unmarked)	6.35
CCOc1ccc(-n2nc3c(SCCN4CCCC4)nnc(C)c3c2C)cc1	-37.5
O=C(NCc1nc2ccccc2[nH]1)c1cccs1	5.55
Cc1ccc(/C=C/C(=O)Nc2ccc([N+](=O)[O-])cc2)o1	-1.05

SMILES	hERG current change (%, negative = inhibition) at 10uM [%]
CSc1ccc(CN(C)CC(=O)N(C)CC(=O)Nc2ccccc2Br)cc1	-56.9
COc1ccc(C2=NOC(Cn3nc(C(=O)NCc4ccc5c(c4)OCO5)cc3-c3ccccc3)C2)cc1 (centres unmarked)	-17.4
CCOC(=O)C(Sc1nnc2c3ccccc3n(CC)c2n1)C(=O)OCC	-28.7
COc1cc(/C=N/NC(=O)c2cncc(Br)c2)cc([N+](=O)[O-])c1O	33.5
CC(=O)c1ccc(OCCn2cnc3ccccc32)cc1	-15.1
c1ccc2c(c1)Cn1c-2nc2ccccc21	-7.79
Cc1ccc(N/N=C(\C#N)C(N)=S)c(C)c1	-0.767
COC(=O)C1=C(c2ccc(Cl)c(C(F)(F)F)c2)C[C@@H]2CC[C@H]1N2C(=O)NCCO	3.46
COc1ccccc1CCCNC(=O)C1CCC(=O)N(CCCN2CCCC2=O)C1 (centres unmarked)	14
COc1ccc(N2CCN(C(=O)c3ccc4ccccc4n3)CC2)cc1	-31.5
CCNCC(=O)N1c2ccccc2CCc2ccc(NC(=O)OC(C)C)cc21.Cl	-11
COCCOC(=O)C1=C(N)OC2=C(C(=O)CC(C)(C)C2)C1c1cccnc1 (centres unmarked)	-5.71
COc1ccc(-c2sc3cc(OC)c(OC)cc3c2C#CC2(O)CCCCC2)cc1	14
O=C(CCNC(=O)N1CC(=O)Nc2ccccc21)Nc1ccc(Cl)cc1	22.9
COc1ccc(N2CC(C(=O)OCC(=O)Nc3cccc(C)c3C)CC2=O)cc1 (centres unmarked)	2.78
Cc1ccc(-n2nnnc2SCC(=O)N2CCNC2=O)cc1C	-20.2
COc1cccc(CC(=O)Nc2cc(S(=O)(=O)N3CCCCC3)ccc2C)c1	-15.9
COc1ccc(CCNc2cn[nH]c(=O)c2Cl)cc1OC	14.1
CCC(=O)Nc1cccc(-c2cn3cccc(C)c3n2)c1	-21.5
O=C(CSc1nc(-c2ccccc2)cs1)N1CCN(C(=O)c2ccco2)CC1	-60.6
NC(=O)C1(N2CCCCC2)CCN(C(=O)c2ccc(C#Cc3ccccc3)o2)CC1	-21.5
COc1ccc(N2CCN(CC(=O)c3c[nH]c4ccccc34)CC2)cc1	8.09

SMILES	hERG current change (%, negative = inhibition) at 10uM [%]
CCC(C(=O)Nc1nnc(-c2ccco2)s1)c1ccccc1 (centres unmarked)	14.7
Cn1nc(C(=O)NC2CCCCC2)c2c1-c1ccccc1SC2	-3.08
COc1ccc(-n2ncc3c(=O)n(CC(C)=O)cnc32)cc1	23.3
O=C(Nc1cccc(C(=O)O)c1)/C(=C\c1ccccc1)NC(=O)c1cccc2ccccc12	9.23
CCCCOc1ccc(C(=O)Oc2cccnc2)cc1	12.2
O=C(COC(=O)CNC(=O)c1ccccc1F)Nc1cccnc1Cl	9.67
CN1CCCC1C(O)(c1ccccc1)c1ccccc1.Cl (centres unmarked)	-3.06
O=C(Nc1cccc2ccccc12)C1CCN(C(=O)Cc2ccccc2)CC1	-25.3
COc1ccc(C(C(=O)NCc2ccccc2)N(Cc2ccco2)C(=O)c2snc(C(N)=O)c2N)cc1 (centres unmarked)	-38.2
O=C(c1ccc(CS(=O)(=O)c2ccc(Br)cc2)o1)N1CCC2(CC1)OCCO2	-18.2
Cc1ccc(NC(=O)Cn2cc(S(=O)(=O)c3ccc(F)cc3)c(=O)c3cc(F)ccc32)cc1	4.56
CCc1nc(C)c(C(=O)N2CCCC(C(=O)Nc3cccc(-c4cccc(C)c4)c3)C2)o1 (centres unmarked)	-42.5
Clc1ccc(Cn2ncc3c(N4CCOCC4)ncnc32)cc1	-16.2
Cc1c(C(C)CCCO)oc(=O)c2c1Oc1c(C)c(C(C)C[C@H](C)O)oc(=O)c1C2 (some centres unmarked)	2.15
COc1ccc(C(=O)NCCNc2nc3c(C)cccc3cc2C#N)cc1	5.36
CC(NC(=O)c1ccco1)C(=O)N1CCN(C(c2ccccc2)c2ccccc2)CC1 (centres unmarked)	-15.7
COc1ccc(S(=O)(=O)N2CCOC23CCN(S(=O)(=O)c2cc(C)ccc2OC)CC3)cc1	26.8
CCCCN1CC(O)=C(c2nc(-c3ccc(Cl)cc3)cs2)C1=N	15.8
C=CCNC(=S)NNc1nc2sc3c(c2c(=O)[nH]1)CC(C)(C)OC3	15.6
COC(=O)c1cc(S(=O)(=O)N2CCN(c3ccc(C(C)=O)cc3)CC2)cn1C	8.29
